Sequences and labels used below:
T1: RBFOX1 RRM RbFoxmut (Fox-RRM*) (Homo sapiens, UniProt Q9NWB1 109-208, R118D;E147R;N151S;E152T)
T1 sequence: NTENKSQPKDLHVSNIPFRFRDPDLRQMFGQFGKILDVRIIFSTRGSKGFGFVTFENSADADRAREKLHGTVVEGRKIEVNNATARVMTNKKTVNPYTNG

B1: UUGCACG (DNA:RNA)
RNA: GGGAGACCGGAAUUCAGAUUGUCCUUGCACGUUAAAUCCCGUCGUAGCCACCA
DNA 1: CAATCTGAATTCCGGTCTCCC
DNA 2: TGGTGGCTACGACGGGATT
B2: GCAGCGC (DNA:RNA)
RNA: GGGAGACCGGAAUUCAGAUUGUCCGCAGCGCUUAAAUCCCGUCGUAGCCACCA
DNA 1: CAATCTGAATTCCGGTCTCCC
DNA 2: TGGTGGCTACGACGGGATT
B3: CAGUGUA (DNA:RNA)
RNA: B1 RNA with U25C, U26A, C28U, A29G, C30U, G31A
DNA 1: CAATCTGAATTCCGGTCTCCC
DNA 2: TGGTGGCTACGACGGGATT
B4: AGCCAAA (DNA:RNA)
RNA: B1 RNA with U25A, U26G, G27C, C30A, G31A
DNA 1: CAATCTGAATTCCGGTCTCCC
DNA 2: TGGTGGCTACGACGGGATT
B5: UGCAUUU (DNA:RNA)
RNA: B1 RNA with U26G, G27C, C28A, A29U, C30U, G31U
DNA 1: CAATCTGAATTCCGGTCTCCC
DNA 2: TGGTGGCTACGACGGGATT
B6: CAUCAAU (DNA:RNA)
RNA: B1 RNA with U25C, U26A, G27U, C30A, G31U
DNA 1: CAATCTGAATTCCGGTCTCCC
DNA 2: TGGTGGCTACGACGGGATT
B7: ACCCACC (DNA:RNA)
RNA: B1 RNA with U25A, U26C, G27C, G31C
DNA 1: CAATCTGAATTCCGGTCTCCC
DNA 2: TGGTGGCTACGACGGGATT
B8: GCCAGAU (DNA:RNA)
RNA: B2 RNA with A27C, G28A, C29G, G30A, C31U
DNA 1: CAATCTGAATTCCGGTCTCCC
DNA 2: TGGTGGCTACGACGGGATT
B9: AUGCAGG (DNA:RNA)
RNA: B1 RNA with U25A, C30G
DNA 1: CAATCTGAATTCCGGTCTCCC
DNA 2: TGGTGGCTACGACGGGATT

Numbering of substitutions follows the chain as printed; changes in the protein carry UniProt numbers. Some of the results follow.

This assay addresses T1, RBFOX1 RRM RbFoxmut (Fox-RRM*). Put plainly: EMSA; HiTS-Eq, 1 nM pool, 10 min; buffer printed only for the single-RNA assays: 10 mM Tris pH 7.5, 150 mM NaCl, 3.4 mM EDTA, 0.001% NP-40, 30 C. The note with it: tags: His6 N-terminal (pET28a); label: 5' 32P. Put shortly: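 These values rest on relative association constants, computed from read-count changes of each RNA species versus the control reaction and normalised to the cognate motif. Reads came from free RNA recovered by 8% native PAGE after purified RbFox RRM (wild type or mutant) at increasing concentrations was equilibrated for 10 min in 50 µL with 1 nM of a 5′-radiolabelled pool with 7 randomized nucleotides and DNA-annealed flanks.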
Turning to B1, the binding signal is 0.612 KA relative to UGCAUGU.
Regarding B2, the binding signal is 0.0816 KA relative to UGCAUGU.
In the case of B3 it was 0.246 KA relative to UGCAUGU.
With B4, the binding signal is 0.0772 KA relative to UGCAUGU.
With B5, the binding signal is 0.137 KA relative to UGCAUGU.
With B6, the binding signal was 0.0414 KA relative to UGCAUGU.
In the case of B7 it was 0.0723 KA relative to UGCAUGU; in that of B8, 0.0881 KA relative to UGCAUGU.
As to B9, the binding signal was 0.118 KA relative to UGCAUGU.
